Measurements reported in the supplement of paper PMC9588766.
Structures can show the parent of a compound that is named as a salt. In all, about 1,900 compounds were measured (“cell viability of compound + 1 nM pemigatinib relative to pemigatinib-only (DMSO) wells”: median about 0.95, lowest 2% from about 0.22 on). The list shows a part of the results.

test system: PDC-DUC18828; test: cell viability of compound + 1 nM pemigatinib relative to pemigatinib-only (DMSO) wells (fraction); PDC-DUC18828 is a patient-derived cholangiocarcinoma cell line; higher = less growth inhibition; settings: first compound 1 µM; pemigatinib concentration 1 nM; 72 h
Protocol: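 Selleck Bioactive library screen in the patient-derived FGFR2 fusion-positive ICC cell line PDC-DUC18828 (500 cells/well). Each compound was tested at 1 uM with 1 nM pemigatinib, in triplicate, for 72 h. Viability was read by CellTiter-Glo and normalised to plate DMSO controls. Value is the paper's averaged normalised viability.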

SMILES	cell viability
c1ccc(Cn2c(-c3ccc(OC[C@H](C4CCNCC4)n4c(-c5ccccc5)nc5ccccc54)cc3)nc3ccccc32)cc1 [Deltarasin] + CCN1C(=O)N(c2c(F)c(OC)cc(OC)c2F)Cc2cnc3[nH]c(CN4CCOCC4)cc3c21 [pemigatinib]	1.02
Cc1cc(C(C)(C)C)cc(C)c1CC1=NCCN1 [Xylometazoline HCl] + CCN1C(=O)N(c2c(F)c(OC)cc(OC)c2F)Cc2cnc3[nH]c(CN4CCOCC4)cc3c21 [pemigatinib]	1.01
CCN(CC)C(=O)C1(c2ccccc2)CC1CN (stereo unspecified) [Milnacipran HCl] + CCN1C(=O)N(c2c(F)c(OC)cc(OC)c2F)Cc2cnc3[nH]c(CN4CCOCC4)cc3c21 [pemigatinib]	0.929
COc1cc(NC(=O)c2ccccn2)ccc1Cl + CCN1C(=O)N(c2c(F)c(OC)cc(OC)c2F)Cc2cnc3[nH]c(CN4CCOCC4)cc3c21 [pemigatinib]	0.921
CC(C)(C)c1cc(NC(=O)Nc2ccc(-c3cn4c(n3)sc3cc(OCCN5CCOCC5)ccc34)cc2)no1 [Quizartinib (AC220)] + CCN1C(=O)N(c2c(F)c(OC)cc(OC)c2F)Cc2cnc3[nH]c(CN4CCOCC4)cc3c21 [pemigatinib]	1.03
Cc1ccc(-c2cc(C(F)(F)F)nn2-c2ccc(S(N)(=O)=O)cc2)cc1 [Celecoxib] + CCN1C(=O)N(c2c(F)c(OC)cc(OC)c2F)Cc2cnc3[nH]c(CN4CCOCC4)cc3c21 [pemigatinib]	0.981
CC(C)[N+]1(C)[C@@H]2CC[C@H]1C[C@@H](OC(=O)C(CO)c1ccccc1)C2 (stereo partly specified) [Ipratropium Bromide] + CCN1C(=O)N(c2c(F)c(OC)cc(OC)c2F)Cc2cnc3[nH]c(CN4CCOCC4)cc3c21 [pemigatinib]	1.05
Nc1ccc(S(=O)(=O)Nc2nccs2)cc1 [Sulfathiazole] + CCN1C(=O)N(c2c(F)c(OC)cc(OC)c2F)Cc2cnc3[nH]c(CN4CCOCC4)cc3c21 [pemigatinib]	0.924
O=C(O)c1cccc(-c2noc(-c3ccccc3F)n2)c1 [Ataluren (PTC124)] + CCN1C(=O)N(c2c(F)c(OC)cc(OC)c2F)Cc2cnc3[nH]c(CN4CCOCC4)cc3c21 [pemigatinib]	0.9
CN[C@H]1CC[C@@H](c2ccc(Cl)c(Cl)c2)c2ccccc21 [Sertraline HCl] + CCN1C(=O)N(c2c(F)c(OC)cc(OC)c2F)Cc2cnc3[nH]c(CN4CCOCC4)cc3c21 [pemigatinib]	0.987
CN1CCc2nc(C(=O)N[C@@H]3C[C@@H](C(=O)N(C)C)CC[C@@H]3NC(=O)C(=O)Nc3ccc(Cl)cn3)sc2C1 [Edoxaban] + CCN1C(=O)N(c2c(F)c(OC)cc(OC)c2F)Cc2cnc3[nH]c(CN4CCOCC4)cc3c21 [pemigatinib]	1
